Test results from a collection of fitness landscapes (doi:10.1016/j.celrep.2020.107928).
Over roughly 81,000 sequences, “one-hybrid fitness for binding parS DNA” has its median near -0.17; the highest 2% begin near 0.51. The list shows a part of the results.

B1: Caulobacter ParB omega fusion; a variant is named by its letters at X, in order, B8GW30 (parent)
chain: MESVVVGEPGMSEGRRGLGRGLSALLGEVDAAPAQAPGEQLGGSREAPIEILQRNPDQPRRTFREEDLEDLSNSIREKGVLQPILVRPSPDTAGEYQIVAGERAWRAAQRAGLKTVPIMVRELDDLAVLEIGIIENVQRADLNVLEEALSYKVLMEKFERTQENIAQTIGKSXSHVANXMRLLXLPDEVQSYLVSGELTAXHARAIAAAADPVALAKQIIEGGLSVRETEALARKAPNLSAGKSKGGRPPRVKDTDTQALESDLSSVLGLDVSIDHRGSTGTLTITYATLEQLDDLCNRLTRGI

Variants of: B1
Assay: one-hybrid fitness for binding parS DNA (scaled: cognate 1, non-cognate 0); higher = stronger binding
Details: with parS DNA site
In short: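 Caulobacter ParB libraries with four specificity codons randomised were screened by bacterial one-hybrid selection in the E. coli USO strain, using a HIS3 reporter whose site lies 19 bp from the promoter. Selection ran for 48 hours at 37°C on M9 lacking histidine, with 0.1 mM IPTG and 5 mM 3-AT. Plasmids were Illumina-sequenced before and after selection, three replicate libraries were pooled, and variants with under 10 reads were dropped. Fitness is the log change in each variant's read ratio to wild type, rescaled against the cognate and non-cognate sites.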

one-hybrid fitness for binding parS DNA, 0.242:
RNGN

one-hybrid fitness for binding parS DNA, 0.606:
RMNA

one-hybrid fitness for binding parS DNA, 0.338:
RAKW

one-hybrid fitness for binding parS DNA, 0.593:
RTGY

one-hybrid fitness for binding parS DNA, 0.437:
RWET

one-hybrid fitness for binding parS DNA, 0.329:
RAHM

one-hybrid fitness for binding parS DNA, 0.36:
KAMY

one-hybrid fitness for binding parS DNA, ≤ 0.2:
RDQG
ARDC
TYCS
QPTA
GCES
DIQL
SWLQ
KFKV
MWKG
SWRN
STKF
LNCY
VKPD
PSCQ
SMVN
RANK
KRTN
SLYW
PNSF
PIRW
FPKG
LEPH
NLWS
DHRV
PSLC
FNLM
TFDV
YFHG
CLGS
PMGI
SGPP
DMVT
AALI
FSVR
FWIG
HPTE
KFQS
KTRN
PMRI
YRCA
WLGR
RTFR
VHNY
HYCR
QMHF
PMHA
EPNM
KHPS
KRAA
SHPN
VIEL
HHYR
RQDW
VIYS
QCFR
FVYS
EKTS
ITRS
LKTK
WYRC
AMRA
WMDF
WSKS
PAVC
AIYG
KMKY
KLQC
HVAS
RRPE
GLWG
TTQP
PRPC
KSDI
QLPH
CSGS
RRVD
NMIR
VDQG
KSYG
TCEN
YFPT
IPPV
EESL
QGRP
APMG
ASMM
PPDT
KPVY
KRRQ
IGRF
ETCV
NYKY
VPLC
DHTL
GLYY
QCHK
KLSE
GLDC
ISHS
LEYV
PSEQ
QTWG
LVVK
LNEW
SYDM
PNPI
DCST
ENMW
QVLV
MLKF
AAEF
PWQI
WLGF
VPKV
GRSI
SSTC
CGKR
AHMS
HVES
YKRA
MVIG
QNDT
NYLR
SDEG
GHLG
SGCS
PSEA
CPLF
HETH
TRAN
PSSM
RPAS
IPEV
HNMT
DDRT
QKTN
IVLC
QGPF
NQFL
HVLY
NRLG
AGGT
EWTA
IGQS
QGVC
CCEL
REDF
IRVI
HMEG
PYFR
PTHY
THGD
HQRP
WRRG
GQLL
ENCS
KPDF
TEVR
NGVM
HWMR
GANS
EIKS
TGLI
GRRA
LTFG
YVWR
HLQG
TMRL
YETI
MHPM
DCDR
MEWS
VHKK
TFSM
PGRE
NKPG
FLVR
FRGT
MSAG
VTFA

one-hybrid fitness for binding parS DNA, 0.802:
RRKM

one-hybrid fitness for binding parS DNA, 0.257:
RIDF

one-hybrid fitness for binding parS DNA, 0.223:
IFYY

one-hybrid fitness for binding parS DNA, 0.407:
RIVN

one-hybrid fitness for binding parS DNA, 0.451:
RQRN

one-hybrid fitness for binding parS DNA, 0.262:
RMPN

one-hybrid fitness for binding parS DNA, 0.24:
RCQW

one-hybrid fitness for binding parS DNA, 0.254:
RVGF
